Source: US12319739 (F STAR DELTA, dated 2025)

Target: T1, human CD137 ligand on DO11.10 cells (human, UniProt P41273)
T1 construct: whole, on cells
Assay: flow cytometry, detected with anti mouse Fc antibody

T1 sequence (P41273 whole entry): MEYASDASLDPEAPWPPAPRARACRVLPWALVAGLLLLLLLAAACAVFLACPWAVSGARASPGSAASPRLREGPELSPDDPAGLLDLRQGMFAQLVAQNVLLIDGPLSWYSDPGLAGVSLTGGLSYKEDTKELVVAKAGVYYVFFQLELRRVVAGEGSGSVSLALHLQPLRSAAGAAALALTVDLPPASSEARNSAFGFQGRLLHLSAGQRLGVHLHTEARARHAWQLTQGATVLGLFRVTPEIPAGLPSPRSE

B1: hCD137-mFc-Avi (Fc fusion, not shown: a dimerising Fc or GST; small tags and cut ends)
chain: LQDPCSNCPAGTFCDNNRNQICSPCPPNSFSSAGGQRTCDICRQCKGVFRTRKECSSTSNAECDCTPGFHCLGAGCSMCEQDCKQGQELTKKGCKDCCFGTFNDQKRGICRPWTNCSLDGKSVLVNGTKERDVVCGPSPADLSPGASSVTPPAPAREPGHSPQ
modifications: one biotin on each Avi tag in the biotinylated form
notes: also called human dimeric CD137; human CD137-mFc-Avi
Q: Does B1 bind?
A: binds
